According to the supplement of paper PMC11417369:
The other results are listed elsewhere or left out.

tested on: PfAP2-HC AP2 domain (GST-tagged); experiment: gcPBM binding intensity (ln(normalized median fluorescence intensity)); higher = stronger DNA binding
In short: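 An Agilent 4 × 180k array of primer-extended double-stranded 36-bp intergenic genomic probes, with negative controls, was incubated for 1 h with GST-tagged P. falciparum DNA-binding domains expressed in E. coli. Alexa488 anti-GST antibody detected bound protein, scanned at 488 nm. Binding intensity is the highest Masliner-normalised natural-log median intensity across replicate spots of either probe orientation.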

Row | Sequence | gcPBM binding intensity (ln)
1 | AAAAAAATTAATGTGTGTACTTAGATATAATGTTTA [XGTACX_site8862] | 9.84
2 | TAATTTTTTTTTTATTGTACTTAATATTTTTAATTT [XGTACX_site5929] | 9.61
3 | ATTATCAAGACATTGCGTACTTAAAAAAAAAAAAAT [XGTACX_site6347] | 9.4
4 | TTATTATTCATATATTCACACATTAAAATTTTTCAA [CACACA_site4243] | 9.64
5 | CATATATAATAATATTGTACATATATAATAATAATA [XGTACX_site3338] | 9.69
6 | ATTTCATACAGACACACACACAAACAAACATATATA [CACACA_site979] | 11.2
7 | GTGAAGGTTTATATGTGTACATATATGTATTATATA [XGTACX_site326] | 9.94
8 | ATTATATATACATATACACACATACGTACATACATA [CACACA_site9194] | 9.95
9 | TTTTTTTTTTTTAATGCACACAGTGAACTTTTACTT [CACACA_site3567] | 9.83
10 | GACATTTCTTGGGATACATGCATGTCCCAGAACAAA [TGCATGCA_site271] | 9.48
11 | TTTAATAAATTGTGTACACAAAACATATAAATTTCG [CACACA_site5644] | 9.82
12 | AATTCAGCTTTACAACGTACACAATCATATGTCTAT [XGTACX_site8113] | 9.86
13 | TAATACATAAATGATTGTACATAAGAATTGAAACAT [XGTACX_site4583] | 9.77
14 | ATGAAGATTTAAAAATGTACATATGATCTATGTCCT [XGTACX_site8409] | 9.63
15 | TTTTTTTGCCATATTACACACACACCGGTAAACCCC [CACACA_site8475] | 10.2
16 | TATAAATAAATAAACACACACAAATAAAATAAAAAA [CACACA_site7623] | 10.3
17 | TTTATTTATTTATTCTTATTTTTTTTTTTTTTTACT [CACACA_negctrl_site257] | 9.49
18 | ACATATTAGGGTCATGAACACACAAAAAAAAAAAAA [CACACA_site8218] | 9.86
19 | TATATATATTAAAAACGTACAAAATAAGAATTAATT [XGTACX_site5979] | 9.73
20 | GGATATATTTTATGTACACACACATATAAGGGATTA [CACACA_site4181] | 9.95
21 | TCTAGGAAAAATTATAGTACACAAAAATATATATAT [XGTACX_site4136] | 9.56
22 | TATGACACTTTGAAGGGTACATGCAGAAAAAAAAAA [XGTACX_site569] | 9.52
23 | ATATATACATATACTATATCTTTTATTTTTATTATT [GTGCAC_negctrl_site127] | 9.92

Row | Sequence | gcPBM binding intensity (ln)
24 | TTATATGCACTTTTTGCACACGTATGAATAACAAAA [CACACA_site1811] | 9.69
25 | TATCAAAATAAATGCACACAAATTGCACATATCTAT [CACACA_site1097] | 9.9
26 | ATTTATATGTAGATGTGTACTTAATTGTAATGTGTT [XGTACX_site6422] | 9.94
27 | CAAAAACATACCTACACACACAATATGTATAAATAA [CACACA_site7617] | 10.8
28 | TTGTTTTGCTAAAAATGTACTCTATATAAAAGCTTT [XGTACX_site4027] | 9.38
29 | TATATATATTATATATGTACACATATGTGAGAATGA [XGTACX_site2992] | 9.79
30 | TACTTCGATAATAATCGTACATATATATTGTATTTA [XGTACX_site5700] | 9.71
31 | CAAAAAATACGATGTTGTACTATGTATTCCTGATGT [XGTACX_site246] | 9.67
32 | TATATATACATAAAAACATGCAATATATACACATTA [TGCATGCA_site444] | 9.64
33 | AACTTTTTTATATGCACACATAAACAAGGATATATA [CACACA_site2874] | 9.67
34 | ATTTTATTTTTTGAGTGTACTAGTTCAACAACTCCG [XGTACX_site8600] | 9.54
35 | TTCGACGAGAGCAAGTGTACTCTTGAATAATTTATA [XGTACX_site7613] | 9.42
36 | TGTTATATATTATATACATGCACAAAAGCAACACAA [TGCATGCA_site1009] | 9.63
37 | ATATATATATACATACGTACACACAAATATTAAAAT [XGTACX_site4007] | 9.95
38 | TCCTATATCACAAATGTGCACAGAAAAAAAAAATAT | 9.73
39 | AATATATATAATAATTGTACAATACGTATGTTATAT [XGTACX_site8745] | 9.81
40 | TGTATACATAATATTTGTACATATTGTTATATATAT [XGTACX_site740] | 9.75
41 | TTATAAAAAAAAAAAAAAAAGAAAATGAATTCACGA [CACACA_negctrl_site1248] | 9.34
42 | AAAAATAAAAAAAACACACATACCTTATTTTTGTTC [CACACA_site2634] | 9.88
43 | AATTAAAATTTTTTTTTTTTTTTTTTTTTTCTATTA [CACACA_negctrl_site1585] | 9.16
44 | TATATATAGAAACACACACACAAAAAAAAAAAAAAA [CACACA_site1506] | 10.3
45 | TATATATCCTTCTATGCATGCATATGGATAGATTTC [TGCATGCA_site58] | 9.48
46 | ATTTAAAAAACTTTTAGCAAAAAAAAAAAATAATAA [TGCATGCA_negctrl_site191] | 9.44

Row | Sequence | gcPBM binding intensity (ln)
47 | AAATTGATATTATATATATATATATATATATATATA [GTGCAC_negctrl_site482] | 9.47
48 | ATATTTATGACCGTACGTACCTAACAATACAATCAA [XGTACX_site4511] | 9.68
49 | TGAATTTCAAAACAGTGTACATTAATATATATATAA [XGTACX_site7951] | 9.55
50 | ATAATATATATATGTAGTACGTATATAATTTTAATA [XGTACX_site5228] | 9.88
51 | AAAATTCTTATAAGATGTACAATTTGTAACACTATA [XGTACX_site510] | 9.57
52 | TCACATACATTACTTACACACCATATTAAGATATAC [CACACA_site4415] | 9.84
53 | AAATAAATATATAATACACACAAAAATATAAAATGT [CACACA_site3711] | 10.3
54 | TTTTGTATATATTATTGTACTTTTAATATAGATCGT [XGTACX_site5830] | 9.64
55 | TTATACTCACGTTACACACACACAATATATATATAT [CACACA_site4137] | 10.3
56 | TTTTTTACAACACGAAAATGAACAATTATAATAAAT [TGCATGCA_negctrl_site301] | 9.52
57 | TAATCATAAAAAAATACACACATATAAAATATAGAT [CACACA_site7020] | 9.9
58 | ATATTTATAAATTGCACACAAATAATAACATTATAT [CACACA_site5322] | 9.76
59 | AAAAGTTAAGCAACAAATTTTATTTCTTATATATAA [TGCATGCA_negctrl_site134] | 9.41
60 | TTATACACTGATAAAAGTACATTTGTATGTTTTTTT [XGTACX_site8959] | 9.56
61 | ATCTAAAAATTTTACGCACACAAGTAAAAAAAAAAA [CACACA_site2485] | 9.83
62 | TTTTATAATCATAATAGTACTTTTTCTTTTTCACAT [XGTACX_site5017] | 9.71
63 | AGTAAAAAAAATATCTGTACATATTAATATAAATGT [XGTACX_site6234] | 9.79
64 | AAATATTATTCTTTTATTTTTAAACATATAATTATA [GTGCAC_negctrl_site136] | 9.45
65 | TTTTTTGTATTTTTCACACACTCTCTATCTCTCTCA [CACACA_site2095] | 9.94
66 | AAAAAAAAAAAAAAAACACACATATATATTATTGTA [CACACA_site3979] | 9.68
67 | GAATATTACATGTATTGTACAGGTAATGTTAAAAAT [XGTACX_site8274] | 9.7
68 | TATATATATATAATTACACACAATGTTCTATATATA [CACACA_site3235] | 9.8
69 | TATTTATTTAATTACACACGAACATATAACCATTTC [CACACA_site211] | 9.86

Row | Sequence | gcPBM binding intensity (ln)
70 | TGTAGACTACATAGTAGTACATAATATATACATATA [XGTACX_site367] | 9.72
71 | TTTTCTTTTAAACATATATATATATATATATATATA [XGTACX_negctrl_site559] | 9.7
72 | GTTGAAAAAAAAAATGCACACGCATACATATAATAT [CACACA_site8117] | 9.99
73 | ATTTCTTTGCTTTTCAAACACACAAAAGTTATTATA [CACACA_site520] | 9.71
74 | TCATTCCATACTTTAACACACAAATATATTTAATCC [CACACA_site145] | 9.85
75 | TTTTTTTTTTTGTTTTGTACATAAATTGCAACCAAT [XGTACX_site8949] | 9.55
76 | ATATATATATATATATGTACATATTCACTTATATTT [XGTACX_site5324] | 9.65
77 | TAACATAAATCCATACGTACCTATATATATATAATA [XGTACX_site2626] | 9.58
78 | ATTTATATTAAAAGTGTGCACTTTTTTTTTTTTTTT | 9.58
79 | TAAGTAAACTTTCTATGTACATATTTTCAAATATTA [XGTACX_site6260] | 9.66
80 | CTTATATATACATATACACACACACCCATATATATA [CACACA_site8705] | 10.5
81 | GGTATAATTCATATAACACACATTTCAATGTTAAAA [CACACA_site2172] | 9.66
82 | TGTATTAATTTGTAATGTACACATATATGTATTATA [XGTACX_site4152] | 9.74
83 | CCAAAATTTATAAATTGTACATATTTTTAAATTCTT [XGTACX_site833] | 9.51
84 | ATAAAAGAATTAAATAATCAAAATGATTATTTTATA [CACACA_negctrl_site466] | 9.39
85 | GATAAATAATAATAAGGTACACATAAAATATTCCTT [XGTACX_site2963] | 9.71
86 | TTAACAAAATTTTTAACACACAAAAAAAAAAAAAAA [CACACA_site1828] | 9.39
87 | ATGTAGACAACATATGAACACACAAAATATTTTTTT [CACACA_site8955] | 9.91
88 | TCTTTTGTTTAACCTACATGCAGAATATAAGTCTTC [TGCATGCA_site99] | 9.51
89 | ATTCATTATTCACCTTGTACACAAATGATTATCGTA [XGTACX_site455] | 9.77
